Measured values published in the RNAGym collection of RNA variant scans (doi:10.7554/elife.90254).
The source gives no read counts; variants with many changes may rest on few reads.

B1: LINE1-mini (parent)
chain: GGCAGAGCUCAACACAGCGUGGCAAAGUGGCUGUGGCUAGACUGCC

Variants of: B1
Assay: self-cleavage, relative activity (ratio to wild type); higher = more cleavage; in vitro, sequencing; the parent is a self-cleaving ribozyme

Row | Variant | self-cleavage
1 | GGCGGAGCUCGACACAGCGUGGCAAAGUGGCUGUGGCUAGACUGCU [A4G A11G C46U] | 0.02
2 | GGCGGAGCUCUACACAGCGUGGCAAAGUGGCUGUUGAUAGACUGCC [A4G A11U G35U C37A] | 0.01
3 | GGCCGAGCUCAACACAGCGUGGCAAAGUGGCUGAGUCUAGAAUGCC [A4C U34A G36U C42A] | 0.05
4 | GGCGGAGCUCAUCACAGCGUGGAAAAGUCGCUGUGGCUAGACUGAC [A4G A12U C23A G29C C45A] | 0.03
5 | GGCGGGGCUCACCACAGCGGGUCAAAGUGGCUGUGGCUACACUGCC [A4G A6G A12C U20G G22U G40C] | 0.01
6 | GGCCGAGCCCAACACAGCGUGGCAGAGUGGCUGUGGCGAGACUGCC [A4C U9C A25G U38G] | 0.01
7 | GGCGGAGCUCUACACAGCGUGGCAAAGUGGCUGUGGAUAGACUGCC [A4G A11U C37A] | 0.02
8 | GGCCGAGCUCAACACAGCGUGGCAAAGCGGCUGUGGCUAGACUCCC [A4C U28C G44C] | 0.03
9 | GGCGGGACUCAACACAGCGUGCCAAAGUGGCUGUGGCUGGACUGUC [A4G A6G G7A G22C A39G C45U] | 0.21
10 | GGCCGAGCUCAACACAGCGGGGCAAAGUGGCUGUGGCUAGACUGCA [A4C U20G C46A] | 0.1
11 | GGCGGAGCUCUACACAGCGUGACAAAGUAGCUGUGGCUAGACUGCA [A4G A11U G22A G29A C46A] | 0.01
12 | GGCGGAGCUCAUGACAGCGUGGCAAAGUGGCUGUGGCUAGACUGCC [A4G A12U C13G] | 0.18
13 | GGCGGAGCUCAUAACAGCGUGGCAAAGUGGCUGUGGCUAGACUGCC [A4G A12U C13A] | 0.14
14 | GGCGGAGCUCACCUCAGAGUGGCAAAGUGGCUGUGGCUGGACUGCC [A4G A12C A14U C18A A39G] | 0.01
15 | GGCGGAGCUCUACACAGCGUGGCAAAGUGGCUGUGACUAGACUGCC [A4G A11U G36A] | 0.04
16 | GGCGGAGCUCAUCACAGCGUGGCAAAGUGGCAGUGCCCAGACUGCC [A4G A12U U32A G36C U38C] | 0.14
17 | GGCGGAGCUCACCACAGCGUGGCAAAGUGACUGUGGCUAGACUGCC [A4G A12C G30A] | 0.01
18 | GGCGGAGCUCAACGCAGCUUUGCAAAGUGGCUGUUGCGAGACUGCC [A4G A14G G19U G21U G35U U38G] | 0.01
19 | GGCGGAGCUCAACUCUGCGGGGCAAAGUGGCUGUGGCUAGACUGGU [A4G A14U A16U U20G C45G C46U] | 0.07

Row | Variant | self-cleavage
20 | GGCGGAGCUCUACACAGCGUGGCAUAAUGGCUGUGGCUAUACUGCC [A4G A11U A25U G27A G40U] | 0.02
21 | GGCGGGGCUCAACAGUGCGUGGCAAAGUGGCUGUGGCUAGACUGCC [A4G A6G C15G A16U] | 0.02
22 | GGCGGAGCUCAACCCAGCGUGGCAAAGUGGCUGUGGUUAGACUGCC [A4G A14C C37U] | 0.06
23 | GGCCGAGCUCAACACAGCGUGGCAAAGUCGGUGCGGCUAGACUGCC [A4C G29C C31G U34C] | 0.06
24 | GGCCGAGCUCAACACAGCGUGGCAAAGUGGCUGUGACCAGACUGCC [A4C G36A U38C] | 0.02
25 | GGCGGAGCUCUACACAGCGUGCCAAAGUAGCUGUGGCUAAACUUCC [A4G A11U G22C G29A G40A G44U] | 0.01
26 | GGCCGAGCUCAACACAGCGUGGCAAAGAGGCAGUGGCUAGACUGCC [A4C U28A U32A] | 0.02
27 | GGCCGAGCCCAACACAGCGUGGCAGAGUGGCUGUGGCUAGACUGCC [A4C U9C A25G] | 0
28 | GGCCGAGCUCAACACAGCGUGGCAAAGCGGCGGUGGUUAGAAUGCC [A4C U28C U32G C37U C42A] | 0.08
29 | GGCCGAGCUCAACACAGCGCGGCAAAGUGGCUGUAGCUAGACUGCC [A4C U20C G35A] | 0.05
30 | GGCCGAGCUCAACACAGCGUGGCAAAGUGUCUGUGGCUAGACCGCC [A4C G30U U43C] | 0.25
31 | GGCGGCGCUCAACACAGCGUGGCAAAGUGGCUGUGGCUAUCCUGCU [A4G A6C G40U A41C C46U] | 0.16
32 | GGCCGAGCUCAACACAGCGUGGCAAAGUGGCGGUGGCUAGACCCCC [A4C U32G U43C G44C] | 0.02
33 | GGCGGGGCUUAACACAGCGUAGCAAAGUGGCUGUGGCUAGAAUGCC [A4G A6G C10U G21A C42A] | 0.02
34 | GGCGGGGCUCAACAUAGCGUGGCAAAGUGGCUGUGGCUAGACUGCC [A4G A6G C15U] | 0.07
35 | GGCCGAGCUCAACACAGCGUGGCAAAGUGGCUUUUGCUAGACUGAC [A4C G33U G35U C45A] | 0.33
36 | GGCGGAGCUCAACGCGGCGCGGCAAAGUGGCUGUGGCUAGAAUGCC [A4G A14G A16G U20C C42A] | 0.33
37 | GGCCGAGCCUAACAGAGCGUGGCAAAUUGGCUGUGGCUAGACUGCC [A4C U9C C10U C15G G27U] | 0.04
38 | GGCCGAGCUCAACACAGCGUGGCAAAGUUGCUGUGGCUGGACUGCC [A4C G29U A39G] | 0.11

Row | Variant | self-cleavage
39 | GGCCGAGCUCAACACAGCGUGGCAAAGUGGCUGUGACUAGACAGCC [A4C G36A U43A] | 0.21
40 | GGCGGAGCUCGACACAGCGUGGCUAAGUGGCUGUGGCUAGAAUGCC [A4G A11G A24U C42A] | 0.01
41 | GGCGGAGCUCAACGCAGCGUGGCAAAGUGUCUGUGGCUAGACAGCC [A4G A14G G30U U43A] | 0.08
42 | GGCGGAGCUCAUCACAGCGUGGCAAAGGGUCUGUGGCUAGUCUGCC [A4G A12U U28G G30U A41U] | 0.02
43 | GGCCGAGCUCAACACAGCGUGGCAAAGUGGCAGUGGGUAGACUGCC [A4C U32A C37G] | 0.02
44 | GGCGGCGCUCAACACAUCGUGGCAAAGUGGCUGUGGCUAGACUGCA [A4G A6C G17U C46A] | 0.69
45 | GGCCGAGCUCAACACAGCGUGGCAAAGUGGCUGUGGCGCGACUGCC [A4C U38G A39C] | 0.86
46 | GGCGGAGCUCGUCACCACGUGGCAAAGUGGCAGUGGCUAGCCUGCC [A4G A11G A12U A16C G17A U32A A41C] | 0.01
47 | GGCCGAGCGCAACAAAGCGUGGCAAAGUGGCUGUGGCCAGCCUGCC [A4C U9G C15A U38C A41C] | 0.02
48 | GGCCGAGCUCAACACAGCGUGGCAAAGUGACUGUGGCAAGACUGGC [A4C G30A U38A C45G] | 0.56
49 | GGCGGAGCUCCACACAGCGUGGCAAAGUGGCUGUUGCUAGACUGCC [A4G A11C G35U] | 0.06
50 | GGCGGUGCUCAACACAGCGUGGCAUAGUGGCUGUAGCUAGACUGCC [A4G A6U A25U G35A] | 0.2
51 | GGCCGAGCUCAACACAGCGUGGCAAAGGGGGUGUGCCUAGACUGCC [A4C U28G C31G G36C] | 0.06
52 | GGCGGAGCUCAUCAGAGCGUGGCAGAGUGGCUGUGGCUAGACUGCC [A4G A12U C15G A25G] | 0.01
53 | GGCGGAGCUCAACGCAGCGUGGCAAAGUGGCUGUGGUUAGACUACC [A4G A14G C37U G44A] | 0.11
54 | GGCGGAGCUCGACACAGCGUGGCAAAGUGGCUGUGGCUAGAAUGCC [A4G A11G C42A] | 0.04
55 | GGCGGAGCUCAACUCAGCGUGGCCAGGUGGCUGUGGCUAGACUGCC [A4G A14U A24C A26G] | 0.08
56 | GGCGGCGCUCCACACAGCGUGGCAAAGUGUCUGUGGCUAGACUGCC [A4G A6C A11C G30U] | 0.01
